From the supplement of paper PMC4604168 (melanoma cell lines)
Some of the results follow. Single values are uncertain, as repeats are few or missing.

How the values were obtained:
Test in all cases: cell count relative to DMSO control; melanoma cells; higher = more viable cells
Conditions in all cases: library dose: standard library concentration; 72 h
[1] = tested on: G361
[2] = tested on: IPC-298
[3] = tested on: IST-MEL1
[4] = tested on: LB2518-MEL
[5] = tested on: LOXIMVI
[6] = tested on: MEL-HO
[7] = tested on: MZ2-MEL
[8] = tested on: MeWo
[9] = tested on: RPMI7951
[10] = tested on: RVH-421
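Further: cells treated in 1,536-well plates, then fixed and DAPI-stained, with nuclei counted from automated high-throughput microscope images.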

## CN1CCN(c2ccc3nc(-c4c(N)c5c(F)cccc5[nH]c4=O)[nH]c3c2)CC1 [Dovitinib] + c1cc(-c2cnn3cc(-c4ccc(OCCN5CCCCC5)cc4)cnc23)ccn1 [Dorsomorphin] (first compound 0.5 µM, partner dose 2 µM)
[1]
  cell count: 37.7%
[2]
  cell count: 53%
[3]
  cell count: 83.6%
[4]
  cell count: 50.4%
[5]
  cell count: 98.6%
[6]
  cell count: 70.7%
[7]
  cell count: 41.5%
[8]
  cell count: 39.5%
[9]
  cell count: 72.8%
[10]
  cell count: 87.1%

## CN1CCN(c2ccc3nc(-c4c(N)c5c(F)cccc5[nH]c4=O)[nH]c3c2)CC1 [Dovitinib] + O=C(O)c1ccc(-c2c[nH]c3ncc(-c4ccccc4)cc23)cc1C1CCCC1 [GSK650394] (first compound 0.5 µM, partner dose 0.8 µM)
[1]
  cell count: 33.9%
[2]
  cell count: 59.7%
[3]
  cell count: 48.4%
[4]
  cell count: 43%
[5]
  cell count: 70.8%
[6]
  cell count: 58.6%
[7]
  cell count: 43.5%
[8]
  cell count: 31.2%
[9]
  cell count: 61.5%
[10]
  cell count: 90.6%

## C[C@@H](Oc1cc(-c2cnn(C3CCNCC3)c2)cnc1N)c1c(Cl)ccc(F)c1Cl [Crizotinib] + Cc1nc(Nc2ncc(C(=O)Nc3c(C)cccc3Cl)s2)cc(N2CCN(CCO)CC2)n1 [dasatanib] (first compound 1 µM, partner dose 0.02 µM)
[1]
  cell count: 68.9%
[2]
  cell count: 80.2%
[3]
  cell count: 63.9%
[4]
  cell count: 70.5%
[5]
  cell count: 31.6%
[6]
  cell count: 73.5%
[7]
  cell count: 59.5%
[8]
  cell count: 70.2%
[9]
  cell count: 39.2%
[10]
  cell count: 145%

## CN1CCN(c2ccc3nc(-c4c(N)c5c(F)cccc5[nH]c4=O)[nH]c3c2)CC1 [Dovitinib] + Cc1cc(N2CCOCC2)cc2[nH]c(-c3c(NC[C@@H](O)c4cccc(Cl)c4)cc[nH]c3=O)nc12 [BMS536924] (first compound 0.5 µM, partner dose 1 µM)
[1]
  cell count: 39.5%
[2]
  cell count: 56.3%
[3]
  cell count: 63.9%
[4]
  cell count: 59.5%
[5]
  cell count: 48%
[6]
  cell count: 66%
[7]
  cell count: 41.9%
[8]
  cell count: 34.9%
[9]
  cell count: 61.9%
[10]
  cell count: 92.4%

## CNC(=O)c1cc(Oc2ccc(NC(=O)Nc3ccc(Cl)c(C(F)(F)F)c3)cc2)ccn1 [sorafenib] + O=C(O)c1ccc(-c2c[nH]c3ncc(-c4ccccc4)cc23)cc1C1CCCC1 [GSK650394] (first compound 2 µM, partner dose 0.8 µM)
[1]
  cell count: 84.9%
[2]
  cell count: 98.8%
[3]
  cell count: 81.5%
[4]
  cell count: 90.4%
[5]
  cell count: 89.8%
[6]
  cell count: 78%
[7]
  cell count: 121%
[8]
  cell count: 74.7%
[9]
  cell count: 67.5%
[10]
  cell count: 85.6%

## CNC(=O)c1cc(Oc2ccc(NC(=O)Nc3ccc(Cl)c(C(F)(F)F)c3)cc2)ccn1 [sorafenib] + C#Cc1cccc(Nc2ncnc3cc(OCCOC)c(OCCOC)cc23)c1 [erlotinib] (first compound 2 µM, partner dose 4 µM)
[1]
  cell count: 64.9%
[2]
  cell count: 66.6%
[3]
  cell count: 98.7%
[4]
  cell count: 89.5%
[5]
  cell count: 88.2%
[6]
  cell count: 87.3%
[7]
  cell count: 81.3%
[8]
  cell count: 57.5%
[9]
  cell count: 61.1%
[10]
  cell count: 68.1%

## C[C@@H](Oc1cc(-c2cnn(C3CCNCC3)c2)cnc1N)c1c(Cl)ccc(F)c1Cl [Crizotinib] + O=C(CCCCCCC(=O)Nc1ccccc1)NO [vorinostat] (first compound 1 µM, partner dose 0.4 µM)
[1]
  cell count: 83.2%
[2]
  cell count: 106%
[3]
  cell count: 109%
[4]
  cell count: 80.8%
[5]
  cell count: 80.9%
[6]
  cell count: 90.2%
[7]
  cell count: 107%
[8]
  cell count: 75.2%
[9]
  cell count: 69.6%
[10]
  cell count: 97%

## C=CCNC1=C2C[C@@H](C)C[C@H](OC)[C@H](O)[C@@H](C)/C=C(\C)[C@H](OC(N)=O)[C@@H](OC)/C=C\C=C(/C)C(=O)NC(=CC1=O)C2=O [Tanespimycin] + Cc1nc(Nc2ncc(C(=O)Nc3c(C)cccc3Cl)s2)cc(N2CCN(CCO)CC2)n1 [dasatanib] (first compound 0.01 µM, partner dose 0.02 µM)
[1]
  cell count: 59.1%
[2]
  cell count: 86.2%
[3]
  cell count: 46.2%
[4]
  cell count: 75%
[5]
  cell count: 41.1%
[6]
  cell count: 74.8%
[7]
  cell count: 60.8%
[8]
  cell count: 82.5%
[9]
  cell count: 8.52%
[10]
  cell count: 80.9%

## C[C@@H](Oc1cc(-c2cnn(C3CCNCC3)c2)cnc1N)c1c(Cl)ccc(F)c1Cl [Crizotinib] + NCC(=O)Nc1ccc(-n2nc(C(F)(F)F)cc2-c2ccc3c(ccc4ccccc43)c2)cc1 [OSU03012] (first compound 1 µM, partner dose 5 µM)
[1]
  cell count: 76.3%
[2]
  cell count: 56.9%
[3]
  cell count: 86%
[4]
  cell count: 69.7%
[5]
  cell count: 72.8%
[6]
  cell count: 84%
[7]
  cell count: 98.9%
[8]
  cell count: 85.7%
[9]
  cell count: 69.7%
[10]
  cell count: 85.7%

## CN1CCN(c2ccc3nc(-c4c(N)c5c(F)cccc5[nH]c4=O)[nH]c3c2)CC1 [Dovitinib] + O=C(CCCCCCC(=O)Nc1ccccc1)NO [vorinostat] (first compound 0.5 µM, partner dose 0.4 µM)
[1]
  cell count: 40.5%
[2]
  cell count: 72.7%
[3]
  cell count: 67.4%
[4]
  cell count: 45.4%
[5]
  cell count: 53.5%
[6]
  cell count: 68.8%
[7]
  cell count: 48.2%
[8]
  cell count: 51.9%
[9]
  cell count: 65.5%
[10]
  cell count: 74.3%
